We go through 13 compounds from patent publication US4605658A (priority 1983, dated 1986).

≈ marks a conversion by molar mass, not a printed value. Where only a bound is given, the exact number is not on record here.

One assay deals with Polio virus-1. Description: microbe, parasite or virus in culture. It is filed as cell-based. The settings on record: HeLa, read-out: Minimum inhibitory concentration.
Another assay relates to Vaccina virus. Description: microbe, parasite or virus in culture. It is filed as cell-based. To be noted: Orthopoxvirus vaccinia, PRK, read-out: Minimum inhibitory concentration.

Consider `Nc1ncnc2c1ncn2CC(O)CO` (racemic) [(RS)--DHPA, 9-(2,3-dihydroxypropyl)adenine, reference compound], for which the EC50 in the assay on Polio virus-1 was greater than 400 mg/L; in the assay on Vaccina virus, 30 to 70 mg/L (≈ 143 to 335 µM).

On to `COC(=O)C(O)Cn1cnc2c(N)ncnc21` (racemic) [Compound 1, methylester of 3-(adenin-9-yl)-2-hydroxypropanoic acid], for which the EC50 was greater than 400 mg/L with Polio virus-1 and 7 mg/L (≈ 29.5 µM) with Vaccina virus.

For `CCOC(=O)C(O)Cn1cnc2c(N)ncnc21` (racemic) [Compound 2], the EC50 was greater than 400 mg/L in the assay on Polio virus-1 and 3 mg/L (≈ 11.9 µM) with Vaccina virus.

`CCCOC(=O)C(O)Cn1cnc2c(N)ncnc21` (racemic) [Compound 3]: the EC50 with Polio virus-1 was greater than 400 mg/L; in the assay with Vaccina virus, 3 to 10 mg/L (≈ 11.3 to 37.7 µM).

Regarding `CC(C)OC(=O)C(O)Cn1cnc2c(N)ncnc21` (racemic) [Compound 4], the EC50 with Polio virus-1 is greater than 400 mg/L; in the assay on Vaccina virus, 3 mg/L (≈ 11.3 µM).

Regarding `CCCCOC(=O)C(O)Cn1cnc2c(N)ncnc21` (racemic) [Compound 5], the values for the EC50 in the assay on Polio virus-1 and in the assay with Vaccina virus were greater than 400 mg/L and 3 to 30 mg/L (≈ 10.7 to 107 µM), respectively.

Take `CCC(C)OC(=O)C(O)Cn1cnc2c(N)ncnc21` (racemic) [Compound 6]: the EC50 in the assay on Polio virus-1 is greater than 400 mg/L; in the assay with Vaccina virus, 3 mg/L (≈ 10.7 µM).

Turning to `CC(C)COC(=O)C(O)Cn1cnc2c(N)ncnc21` (racemic) [Compound 7], the EC50 in the assay with Polio virus-1 is greater than 400 mg/L; in the assay with Vaccina virus, 3 to 30 mg/L (≈ 10.7 to 107 µM).

Consider `CC(C)CCOC(=O)C(O)Cn1cnc2c(N)ncnc21` (racemic) [Compound 8], for which the figures for the EC50 in the assay with Polio virus-1 and with Vaccina virus were greater than 400 mg/L and 10 to 30 mg/L (≈ 34.1 to 102 µM), respectively.

`CCCCCCCCOC(=O)C(O)Cn1cnc2c(N)ncnc21` (racemic) [Compound 9]: the EC50 with Polio virus-1 is greater than 100 mg/L; in the assay on Vaccina virus, 7 mg/L (≈ 20.9 µM).

On to `COCCOC(=O)C(O)Cn1cnc2c(N)ncnc21` (racemic) [Compound 10], for which the EC50 with Polio virus-1 is greater than 400 mg/L; with Vaccina virus, 30 mg/L (≈ 107 µM).

`Nc1ncnc2c1ncn2CC(O)C(=O)OC1CCCCC1` (racemic) [Compound 11]: the EC50 was greater than 100 mg/L with Polio virus-1 and 3 mg/L (≈ 9.83 µM) in the assay with Vaccina virus.

Consider `Nc1ncnc2c1ncn2C[C@H](O)CO` [(S)--DHPA, 9-(2,3-dihydroxypropyl)adenine, reference compound], for which the figures for the EC50 in the assay with Polio virus-1 and in the assay on Vaccina virus were greater than 400 mg/L and 30 to 70 mg/L (≈ 143 to 335 µM), respectively.
